Test results reported in the BET-seq Pho4 binding data (Le et al. 2018).
Some of the results follow. Values were computed here from the reads of four pooled replicates and scatter widely.

These sequences were tested against T1, Pho4 (S. cerevisiae) (UniProt P07270) (assay: relative binding free energy (BET-seq); higher = weaker binding). Conditions: reference: library average.
T1 sequence: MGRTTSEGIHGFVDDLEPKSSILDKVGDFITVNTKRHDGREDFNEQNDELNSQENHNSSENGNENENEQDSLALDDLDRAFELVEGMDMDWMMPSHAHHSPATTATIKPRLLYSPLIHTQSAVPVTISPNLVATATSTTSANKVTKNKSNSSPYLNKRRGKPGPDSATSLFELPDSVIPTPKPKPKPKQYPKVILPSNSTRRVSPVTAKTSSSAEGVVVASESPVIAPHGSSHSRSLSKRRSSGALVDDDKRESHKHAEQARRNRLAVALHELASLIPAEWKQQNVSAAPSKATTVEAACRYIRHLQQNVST

| Sequence | relative binding free energy [kcal/mol] |
| --- | --- |
| GAGGGCACGTGACAGT | 0.06 |
| AATAGCACGTGTTTGG | -0.19 |
| GATTGCACGTGGCATT | 0.04 |
| AGTACCACGTGGTTTG | -0.02 |
| TATCGCACGTGCGGTT | -0.15 |
| CTTGGCACGTGTTATG | -0.05 |
| AGAGGCACGTGTAGAT | 0.14 |
| CATTACACGTGGAGGG | -0.03 |
| TTGCGCACGTGTGCAG | -0.18 |
| TAGTCCACGTGGGATG | 0.07 |
| TGCTACACGTGTTGGT | 0 |
| CTAGACACGTGGAGGG | -0.03 |
| TATCGCACGTGGTTAT | -0.14 |
| GGGGGCACGTGTTATG | -0.01 |
| ATGTTCACGTGTGAAT | 0.32 |
| CGTGTCACGTGGGGAT | -0.02 |
| TGGCGCACGTGGGTTA | -0.15 |
| AAAGTCACGTGTGGAA | 0.16 |
| GAGGTCACGTGAAAGT | 0.47 |
| TGGGACACGTGTTGGC | 0.07 |
| TTGTCCACGTGGTGTA | -0.02 |
| ATGCACACGTGTATTT | 0.12 |
| AAAGACACGTGGAAGG | 0.2 |
| GGGTTCACGTGATCAG | 0.27 |
| TGGGGCACGTGGTAGT | -0.08 |

| Sequence | relative binding free energy [kcal/mol] |
| --- | --- |
| ATGGTCACGTGTCATA | 0.26 |
| TTTCGCACGTGTTAGA | 0.07 |
| CTTTTCACGTGGGCGA | 0.27 |
| ATGGTCACGTGATTGT | 0.17 |
| CTGAGCACGTGTGGAG | -0.01 |
| TTAGACACGTGGTCTG | -0.21 |
| GGTATCACGTGGTAGT | 0.17 |
| GTGTTCACGTGGGGCG | 0.13 |
| TTCCGCACGTGGGCGG | -0.09 |
| TGAGCCACGTGTGGAT | -0.03 |
| CGGGTCACGTGAAAGT | 0.43 |
| AGGGCCACGTGTTGGT | -0.12 |
| TTGAGCACGTGACTTG | 0.06 |
| GGAACCACGTGGTGTT | 0.03 |
| ATGTGCACGTGTCGGG | 0.09 |
| AGTGTCACGTGTTGTT | 0.09 |
| GGTGGCACGTGGGTCC | -0.13 |
| CTGGGCACGTGCTGGG | -0.07 |
| CAGGGCACGTGATTTA | -0.04 |
| TACGACACGTGGGTGA | -0.03 |
| TGGACCACGTGGGTTG | -0.21 |
| GGGTTCACGTGGGGTA | 0.14 |
| AGTGACACGTGTGAAA | 0.18 |
| TCTGTCACGTGGTAAG | 0 |
| AAAGGCACGTGTTGAA | 0.09 |

| Sequence | relative binding free energy [kcal/mol] |
| --- | --- |
| TATCGCACGTGTTAGT | 0.02 |
| TTATGCACGTGACTGT | 0.07 |
| ACTTGCACGTGTGTGT | -0.1 |
| CATAGCACGTGATTGT | 0.06 |
| GGTGACACGTGTGGTC | 0.21 |
| GGTGTCACGTGATACT | 0.22 |
| TAATTCACGTGCTGTA | 0.28 |
| GGAATCACGTGCTGTA | 0.26 |
| TATATCACGTGGCATA | 0.16 |
| AGGGTCACGTGCAAGT | 0.04 |
| CGTAGCACGTGTTGAA | 0.04 |
| ATGGGCACGTGGACCT | 0.09 |
| TTAGACACGTGTCGTG | 0.04 |
| TGTCGCACGTGATGTG | 0.05 |
| AAGTGCACGTGGGCCG | -0.24 |
| TGCAGCACGTGTTGTA | -0.11 |
| GTGGTCACGTGGAGGA | 0.13 |
| TACGGCACGTGAGGTG | 0.05 |
| GCTGGCACGTGTTTGC | 0.13 |
| AGTGACACGTGTTAAG | 0 |
| GATGACACGTGTTCGG | 0.16 |
| AGGTTCACGTGTATAT | 0.27 |
| TTTGACACGTGTTTTG | 0.06 |
| TACTTCACGTGCTGGT | 0.19 |
| GCGTGCACGTGATAGG | 0.04 |

| Sequence | relative binding free energy [kcal/mol] |
| --- | --- |
| CCTGACACGTGGGGGT | -0.1 |
| TACTTCACGTGTTGAT | 0.24 |
| TGTGGCACGTGGTATT | -0.1 |
| GTAAGCACGTGGGTTT | -0.13 |
| TTTGTCACGTGCTGTA | 0.01 |
| GGTGGCACGTGCAATT | 0.05 |
| TCAGGCACGTGTATAT | -0.03 |
| TGTGACACGTGCGCGG | -0.31 |
| TGGAACACGTGGATGT | 0.05 |
| GGTCTCACGTGGGGGC | 0.21 |
| GGGAACACGTGTTTTG | 0.03 |
| GATCGCACGTGTGAGT | 0.07 |
| GGTCTCACGTGAGTAG | 0.43 |
| TCTTACACGTGGGTGA | -0.1 |
| TTGGTCACGTGGTTCG | 0.06 |
| GTAAGCACGTGGTTCT | 0.01 |
| TGCTCCACGTGTAGGG | -0.04 |
| GTAGGCACGTGGCGTT | -0.16 |
| GGTGGCACGTGGATGT | -0.04 |
| AAGCTCACGTGTGTGG | 0.21 |
| GTTGCCACGTGTTGTC | 0.03 |
| GGCTTCACGTGACTTG | 0.53 |
| GTTAACACGTGTTGGG | 0.08 |
| TCATGCACGTGAGTTA | 0.15 |
| ATTGTCACGTGAAGTT | 0.19 |

| Sequence | relative binding free energy [kcal/mol] |
| --- | --- |
| TGGAACACGTGTGTCG | 0.04 |
| ATTTACACGTGTGATG | 0.29 |
| ATTCGCACGTGTGGGT | -0.04 |
| GTGTCCACGTGTCGTG | 0.04 |
| GTAAGCACGTGGGGCT | -0.15 |
| CGAGTCACGTGGAGGG | -0.09 |
| GATTTCACGTGAGAGT | 0.36 |
| TAAGTCACGTGGTGCG | -0.09 |
| GAGGCCACGTGTTGTT | 0.11 |
| AGTCGCACGTGATGTA | 0.08 |
| GCTGTCACGTGGGTCA | 0.03 |
| CGGGCCACGTGAGGCG | 0.13 |
| TTTATCACGTGCGAGA | 0.23 |
| GGTGGCACGTGCTGGA | -0.11 |
| TATGGCACGTGGGGAG | -0.17 |
| GGTTGCACGTGGAAGG | 0.2 |
| GGTTTCACGTGGGAAT | 0.31 |
| GAGGTCACGTGGACTG | 0.07 |
| TGCGTCACGTGGGACT | 0 |
| GTGGGCACGTGTCTCG | -0.04 |
| CTTTGCACGTGTGGGC | 0.19 |
| AGGTACACGTGTTAGG | 0.1 |
| GGTGTCACGTGCATAT | 0.18 |
| GAAGTCACGTGATTTG | 0.39 |
| TTTTGCACGTGAGAGT | 0.21 |

| Sequence | relative binding free energy [kcal/mol] |
| --- | --- |
| GCGGTCACGTGGTCTT | 0.1 |
| GAGGGCACGTGTAGGT | -0.05 |
| ATTTACACGTGTTTGT | -0.03 |
| AAGTTCACGTGATGGA | 0.3 |
| TGGGGCACGTGTGTGT | -0.11 |
| GTGATCACGTGGGGAG | 0.04 |
| GGGAGCACGTGGTGTA | -0.09 |
| TGGAACACGTGTTGTA | 0.03 |
| AGTGCCACGTGTTTGA | -0.14 |
| ATTAGCACGTGATTGC | 0.09 |
| TTTTGCACGTGGCGGT | -0.07 |
| TATTACACGTGACTTT | 0.34 |
| AGGGTCACGTGACCGG | 0.1 |
| GAGTACACGTGGAATT | 0.41 |
| AGTTACACGTGAATTA | 0.51 |
| GGGGGCACGTGCATGG | -0.2 |
| GTCATCACGTGCGGTG | 0.19 |
| TGGCTCACGTGTCTGG | 0.15 |
| TTGGGCACGTGATGAA | -0.03 |
| ATCTGCACGTGGATGG | 0.17 |
| GTGTGCACGTGCATGC | -0.09 |
